Measurements reported in PubChem BioAssay AID624418 (National Center for Advancing Translational Sciences (NCATS), 2012).
“And” between values parts separate entries of the source, which are not always exact repeats. Equal values may be shown once. The campaign covered roughly 410,000 compounds. About 530 (0.13%) were called active. The inconclusive results got no clear call from the source; some entries with a clear call stand among them for comparison. Calls come from the whole dose curve; as a rule, active = well fitted inhibition curve with a large enough effect; inconclusive = small, poorly fitted or top-dose-only effect, or another doubt; inactive = no such curve, though single readings can be large or run the other way. Where the call is inconclusive, the potency comes from a doubtful curve fit.

Assay: qHTS of GLP-1 Receptor Inverse Agonists: Cytotox Screen
Settings: HEK293 cAMP-luciferase reporter cells, luminescence, 24 h; activity change, negative = inhibition: at 38.3 µM (top of the series) unless noted
Summary of the method: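 A 23 nL compound transfer followed 12 hours of cell culture at 37 deg C; exposure then lasted 24 hr. Luciferase assay detection reagent was dispensed and plates read for luminescence after a 12 min room-temperature wait.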
% is set by controls: 0 for no effect and ±100 for the full control effect; potency is the fitted concentration of half-maximal effect.

SMILES | activity change, negative = inhibition | Potency
COc1ccc(-c2cc3nc(C)c(CCC(=O)Nc4cccc(C(F)(F)F)c4)c(C)n3n2)c(OC)c1 | inactive: 3.28% | –
O=C(CSc1nnc(Nc2ccccc2)s1)NC1CCCC1 | – | inconclusive: 4.47 µM [inhibitor, partial curve, poor fit]
CC(C)(C)c1csc(Sc2ccc([N+](=O)[O-])cn2)n1 | – | inconclusive: 28.2 µM [inhibitor, single point]
C=CCn1c(SCC(=O)NCc2ccc3c(c2)OCO3)nnc1C1COc2ccccc2O1 (stereo unspecified) | – | inconclusive: 20 µM [inhibitor, single point]
CCOc1cc(NC(=S)NCC(C)C)c(OCC)cc1NC(=O)c1ccco1 | – | inconclusive: 8.91 µM [inhibitor, partial curve, poor fit]
S=C(Nc1ccccc1)c1nc2ccccc2s1 | – | inconclusive: 3.55 µM [inhibitor, full curve, poor fit]
Cc1ccc(CNC(=O)Nc2cn(CC(C)C)c(=O)c3ccccc23)cc1 | inactive: -1.76% | –
CCCc1[nH]nc2c1C(c1ccc(O)c(OC)c1)C(C#N)=C(N)O2 (stereo unspecified) | – | inconclusive: 11.2 µM [inhibitor, partial curve, poor fit]
Cc1c(C)c2c(OCC(=O)N3CCC(C(=O)O)CC3)cc3c(c2oc1=O)CCC(C)(C)O3 | inactive: 4.94% | –
O=Cc1cccc(OC(=O)/C=C/c2ccco2)c1 | – | inconclusive: 0.0891 µM [inhibitor, full curve, poor fit]
COc1cc(/C=N/Nc2ncnc3sc4c(c23)CCC4)ccc1O | – | inconclusive: 28.2 µM [inhibitor, single point]
CSc1ncccc1C(=O)NC1CC(C)(C)Cc2c1cnn2-c1ccccc1C (stereo unspecified) | inactive: 11.9% | –
CCOc1ccc(NC(=O)c2cnn(-c3ccc(C)c(Cl)c3)c2C2CCNCC2)cc1 | – | inconclusive: 28.2 µM [inhibitor, single point]
CC(CN1CCOCC1)OC(=O)c1ccc(Br)cc1 (stereo unspecified) | – | inconclusive: 3.98 µM [inhibitor, full curve]
CCN(CC)c1cc(C(F)(F)F)nc(-c2ccccn2)n1 | – | inconclusive: 11.2 µM [inhibitor, partial curve]
CCOC(=O)c1[nH]c(C)c(C(=O)OC)c1C | – | inconclusive: 14.1 µM [inhibitor, single point]
CCOc1cc(C)c(S(=O)(=O)NC2CCCCC2)cc1C | inactive: 10.3% | –
CC1=CC(C)(C)NC(=S)N1c1cccc(C)c1 | – | inconclusive: 12.6 µM [inhibitor, partial curve, poor fit] and inconclusive: 28.2 µM [inhibitor, single point]
Cc1cc(N)n(-c2ncnc3scc(-c4ccc(Cl)cc4)c23)n1 | inactive: -13% | –
Cc1occc1C(=O)NCCCCNC(=O)c1ccoc1C | inactive: -1.97% | –
CCC(C)NC(=O)Cn1cnc2sc(C)c(S(=O)(=O)N3CCCCC3)c2c1=O (stereo unspecified) | – | inconclusive: 4.47 µM [inhibitor, partial curve, poor fit]

SMILES | activity change, negative = inhibition | Potency
O=C(Nc1ccc(N2CCN(C(=O)c3ccco3)CC2)cc1)c1cc(Br)ccc1Cl | – | inconclusive: 28.2 µM [inhibitor, single point]
CC(NNC(=S)N1CCN(c2ccccn2)CC1)c1nccc2ccccc12 (stereo unspecified) | – | inconclusive: 0.316 µM [inhibitor, full curve, poor fit]
O=C(NC1CCCCC1)c1ccc(-c2cccc([N+](=O)[O-])c2)o1 | – | inconclusive: 11.2 µM [inhibitor, single point]
CCCNC(=O)C1(C)CCN(Cc2ccc(-c3ccccc3)o2)C1 (stereo unspecified) | inactive: 2.04% | –
CCOC(=O)c1c(-c2ccccc2)oc2ccc(O)c(CN3CCCC3)c12 | – | inconclusive: 25.1 µM [inhibitor, single point]
OC(CNCCc1ccc(Cl)cc1)COc1cc(Cl)ccc1Cl (stereo unspecified) | – | inconclusive: 31.6 µM [inhibitor, partial curve, poor fit]
Cc1ccc(-c2nc3sc(C(N)=O)c(N)c3c3c2CCCC3)cc1 | inactive: 192% | –
CCn1c2ccccc2c2cc(NC(=O)CSc3nnc(-c4cccc(OC)c4)n3N)ccc21 | – | inconclusive: 28.2 µM [inhibitor, single point]
Cc1ccccc1N(CC(=O)N/N=C/c1ccc(Cl)cc1)C(=O)c1ccccc1 | – | inconclusive: 12.6 µM [inhibitor, single point]
O=C(CCCN1C(=O)/C(=C\c2cccs2)SC1=S)Nc1ccc(O)cc1C(=O)O | – | inconclusive: 11.2 µM [inhibitor, single point]
CC(C)N(CCn1c(SCC(=O)N2CC(=O)Nc3ccccc32)nc2ccccc2c1=O)C(C)C | – | inconclusive: 14.1 µM [inhibitor, single point]
COCCn1c(C)cc(C2=NNC(=Nc3ccc(OC)cc3)SC2)c1C | – | inconclusive: 0.501 µM [inhibitor, full curve, poor fit]
CO[C@H]1C=CO[C@@]2(C)Oc3c(C)c(O)c4c(O)c(c(C=NN5CCN(C)CC5)c(O)c4c3C2=O)NC(=O)C(C)=CC=C[C@H](C)[C@H](O)[C@@H](C)[C@@H](O)[C@@H](C)[C@H](OC(C)=O)[C@@H]1C | – | inconclusive: 12.6 µM [inhibitor, single point]
CC(=O)CSc1nc2ccccc2o1 | inactive: 2.23% | –
COc1cc(NS(=O)(=O)c2ccc(C)cc2)c2ncccc2c1 | – | inconclusive: 3.55 µM [inhibitor, full curve, poor fit]
CN1CCN(C(=S)SCC(=O)Nc2nc(-c3ccccc3)c(-c3ccccc3)o2)CC1 | – | inconclusive: 10 µM [inhibitor, partial curve, poor fit]
CCOC(=O)c1nnc(-c2ccccc2)nc1Oc1ccccc1Cl | – | inconclusive: 31.6 µM [inhibitor, single point]
CCOC(=O)c1c(CSc2ccccc2)n(C)c2cc(Br)c(OCC(O)CNC(CO)(CO)CO)cc12 (stereo unspecified) | – | inconclusive: 28.2 µM [inhibitor, single point]
CC(Cc1cccs1)NC(=S)Nc1ccc(Cl)cc1 (stereo unspecified) | – | inconclusive: 28.2 µM [inhibitor, single point]
Cc1cccc(-c2nc(CN3CCCC(C(=O)NC4CCCCCC4)C3)c(C)o2)c1 (stereo unspecified) | – | inconclusive: 10 µM [inhibitor, partial curve]
